Reference: PubChem BioAssay AID1458 (National Center for Advancing Translational Sciences (NCATS), 2008)
In all, about 210,000 compounds went through this assay and about 5,900 (2.8%) were called active. This list was built around the results that the source calls inconclusive (neither active nor inactive); the mix of calls is not that of the screen. The call rests on the fitted dose curve; in most records, active means well fitted activation curve with a large enough effect; inconclusive means small, poorly fitted or top-dose-only effect; inactive means no such curve, though single readings can be large or run the other way. Potencies of inconclusive entries are doubtful fits and often do not repeat.

Experiment: qHTS Assay for Enhancers of SMN2 Splice Variant Expression; further: nearly all actives have a fitted effect of over 55% in size
Details: HEK293 SMN2-luciferase splicing reporter, luminescence, 30-36 h; series mostly up to 46.1 µM
Method in brief: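 HEK293 cells carry an SMN2 […]–luciferase reporter in which exon 7 inclusion puts luciferase in frame. Cells were plated 10-12 h before compound addition, then incubated 30-36 h at 37C. ONE-Glo luminescence was read; sodium butyrate at 4.5 mM final served as control.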
Potency means the concentration at half of the fitted maximal effect; tags describe the fitted curve by direction and shape.

SMILES	Potency
N#Cc1c(-c2ccccc2)cc(-c2ccccc2)nc1SCC(O)CS(=O)(=O)Cc1ccccc1 (stereo not drawn)	inactive
COc1ccc(NC(=O)COC(=O)[C@@H]2CCCN2C(=O)c2cccs2)c(OC)c1	inconclusive: 4.47 µM [activator, full curve, poor fit]
CCC(=O)NC(=S)Nc1ccccc1OC	inconclusive: 35.5 µM [activator, single point]
CC(=O)NS(=O)(=O)c1ccc(NC(=O)c2cc(-c3ccc(C)cc3)nc3ccccc23)cc1	inactive
Cc1csc(NC(=O)CSc2nnc(-c3ccncc3)o2)n1	active: 3.16 µM
CCOc1ccccc1NC(=O)C1CC2CCCC(C1)C2=O (stereo not drawn)	inconclusive: 5.62 µM [activator, partial curve, poor fit]
CSc1ccccc1C(=O)Nc1nc2ccccc2[nH]1	active: 14.1 µM
COc1cc(/C=N/NC(=O)c2cc(-c3cccn3C)n[nH]2)cc(OC)c1OC	inconclusive: 17.8 µM [activator, single point]
Cc1ccc(N(CC(=O)O)S(C)(=O)=O)cc1Cl	inconclusive: 3.55 µM [activator, full curve, poor fit]
COC(=O)c1ccc(/C=C(\C#N)c2ccccn2)cc1	inconclusive: 15.8 µM [activator, single point]
CC1CCCN(C(=O)Cc2ccc(F)cc2)C1 (stereo not drawn)	inconclusive: 0.0355 µM [activator, full curve, poor fit]
O=C(Nc1cnc2ccccc2c1)N1CCOCC1	inconclusive: 3.98 µM [activator, full curve, poor fit]
CCOC(=O)C(=CNCC(=O)O)C(=O)OCC	inconclusive: 3.98 µM [activator, partial curve]
CNc1ncc(C(=O)c2ccc(Cl)cc2)s1	active: 12.6 µM
CCN(CC)c1ccc(-c2nc3cnccc3n2C)cc1	inconclusive: 12.6 µM [activator, partial curve]
Cc1ccc2nc(/C(C#N)=C/c3ccccc3F)[nH]c2c1	inconclusive: 11.2 µM [activator, partial curve]
COc1cccc(-c2nc3ccccc3s2)c1	inconclusive: 14.1 µM [activator, single point]
Cc1ccsc1CCN1C(=O)N(c2ccccc2)C(=O)C1CC(=O)Nc1ccc(Cl)cc1 (stereo not drawn)	inactive
Cc1nc(N2CCOCC2)nc(OCCN2CCOCC2)c1[N+](=O)[O-]	inconclusive: 0.447 µM [activator, full curve]
CCS(=O)(=O)c1ncc(Cl)c(C(=O)N2CCN(c3ccc(OC)cc3)CC2)n1	inconclusive: 31.6 µM [activator, single point]
COc1cc(OC)c(-c2nc3c[n+](CC(=O)c4ccccc4)ccc3n2C)cc1OC	inconclusive: 10 µM [activator, partial curve, poor fit]
CCn1c(=S)[nH]c2ccccc21	inconclusive: 7.94 µM [activator, partial curve]
COc1ccc(-c2noc(-c3cccnc3)n2)cc1OC	inconclusive: 10 µM [activator, partial curve]
COC(=O)COc1ccc(Cl)cc1C1Nc2ccccc2C(=O)N1c1ccc(OC)cc1 (stereo not drawn)	inconclusive: 17.8 µM [activator, single point]
COc1cc(-c2nnc(Sc3ccc(C(F)(F)F)cc3[N+](=O)[O-])o2)cc(OC)c1OC	inconclusive: 0.0224 µM [activator, full curve, poor fit]

SMILES	Potency
Cn1cccc1CNC(=O)Nc1ccc(Cl)cc1	inconclusive: 35.5 µM [activator, single point]
Cc1cc(C)n(-c2nc(N(c3ccccc3)c3ccccc3)nc(-n3nc(C)cc3C)n2)n1	inactive
COC(=O)c1ccc(C)c(NC(=S)NCc2ccc(Cl)cc2)c1	inactive
Cc1cc(C(=O)Nc2ccc(S(=O)(=O)N3CCCC3)cc2)cs1	inconclusive: 0.447 µM [activator, full curve]
COc1ccc2[nH]cc(CCN=C(NC(=O)c3ccccc3F)Nc3nc(C)cc(C)n3)c2c1	active: 35.5 µM
Cc1ccc(-c2nc3ccccc3[nH]2)s1	active: 7.08 µM
CC(O)CNc1nc2c(c(=O)n(C)c(=O)n2C)n1C/C=C/c1ccccc1 (stereo not drawn)	inactive
Cc1ccc2c(CSc3nnc(N)s3)cc(=O)oc2c1	inconclusive: 0.1 µM [activator, full curve, poor fit]
CCn1c(=O)cc(OCC(=O)Nc2nc(C)cs2)c2ccccc21	inconclusive: 15.8 µM [activator, single point]
COc1ccc(OC)c(S(=O)(=O)n2nnc3ccccc32)c1	inconclusive: 0.398 µM [activator, full curve, poor fit]
CC(=O)c1cccc(N(CC(=O)N2CCOCC2)S(C)(=O)=O)c1	inconclusive: 0.0562 µM [activator, full curve, poor fit]
COC(=O)c1ccc(COc2ccc(-c3nnn(CC(=O)NC(C)(C)C)n3)cc2)cc1	active: 14.1 µM
COc1ccc(C(C)(C)C)cc1S(=O)(=O)N1CCN(C)CC1	inconclusive: 0.0562 µM [activator, full curve, poor fit]
Cc1ccc(SCc2ccc(C(=O)N3CCCC3)cc2)cc1	inconclusive: 5.62 µM [activator, partial curve]
Cc1cc(NC(=O)CSc2nc3ccsc3c(=O)n2NC(=O)c2ccccc2)no1	inconclusive: 5.01 µM [activator, partial curve]
CC(=O)c1cnc(Nc2cccc(C)c2)s1	active: 17.8 µM
Cc1cccc(-c2cc(C(=O)NCc3ccccn3)c3ccccc3n2)c1	inactive
COc1ccc(N=c2oc3ccc(OC)cc3cc2-c2nc3ccccc3[nH]2)cc1	inconclusive: 10 µM [activator, partial curve]
COc1ccc(-c2nc3nc(C)cc(C)n3c2Nc2c(C)cccc2C)cc1	inactive
O=C(N/N=C/c1ccc(Br)o1)c1ccc2c(c1)OCCO2	active: 11.2 µM
O=C(NC(=S)NCC1CCCO1)c1ccc(Br)o1 (stereo not drawn)	inconclusive: 14.1 µM [activator, partial curve]
Cc1nc2cc(NC(=O)N3c4ccccc4CC3C)ccc2n1C (stereo not drawn)	active: 2.82 µM
CNC(=S)NNc1nc(C)cc(C)n1	inactive
C1CCCC1	inactive
Cc1nc2nc(COc3ccccc3)[nH]n2c(=O)c1Cc1ccccc1	inconclusive: 5.01 µM [activator, single point]

SMILES	Potency
Cc1ccc(-c2nn3c(-c4cccc(Cl)c4)nnc3s2)cc1	inconclusive: 0.794 µM [activator, full curve, poor fit]
O=C(CSc1ccccc1)NCc1ccccn1	inactive
Cc1occc1C(=O)Nc1cccc(C(=O)O)c1	inconclusive: 7.94 µM [activator, partial curve]
Cn1cccc1C(=O)NC(=O)COC(=O)c1ccccc1O	active: 35.5 µM
CC1CCCN(CCCOc2ccccc2-c2ccccc2)C1 (stereo not drawn)	inactive
Cc1ccc(NC(=O)C(=O)NCc2ccc(/C=N/NC(=O)c3c(C)nc4ccccn34)o2)cc1	inconclusive: 11.2 µM [activator, partial curve, poor fit]
CCOC(=O)CNC(=O)O[C@@H]1C(=O)c2cc(OC)ccc2O[C@H]1c1cccc(OC)c1	inconclusive: 31.6 µM [activator, single point]
COc1ccc(CNc2cc(NCCCO)c([N+](=O)[O-])c3nonc23)cc1	inactive
COCCNC(=O)COC(=O)c1cc(-c2ccc(OC)cc2)nc2ccccc12	inconclusive: 35.5 µM [activator, single point]
CCNC(=O)Nc1nc2ccccc2s1	active: 14.1 µM
CC(C)(C)Cc1nc(-c2ccccn2)no1	inconclusive: 3.98 µM [activator, full curve]
O=C(Cn1c(=O)sc2ccccc21)Nc1nc2c(s1)CCCC2	inconclusive: 31.6 µM [activator, single point]
CCOc1ccc(-c2noc(-c3ccncc3)n2)cc1OCC	inactive
CC(C)(C)C(=O)Nc1ccccc1C(=O)OCC(=O)c1ccc2c(c1)OCCO2	inactive
Cc1ccc(S(=O)(=O)N(C)CC(=O)OCC(=O)NC(c2ccccc2)c2ccccc2)cc1	inconclusive: 0.891 µM [activator, full curve, poor fit]
COC(=O)C(Sc1nc(C)cc(C)c1C#N)c1ccccc1 (stereo not drawn)	inconclusive: 2.24 µM [activator, partial curve]
CCS(=O)(=O)Nc1cc(-c2cn3ccc(C)cc3n2)ccc1C	inconclusive: 17.8 µM [activator, single point]
CS(=O)(=O)Nc1ccc(C(=O)NCC2CCCO2)cc1 (stereo not drawn)	inconclusive: 0.0891 µM [activator, full curve]
CCOC(=O)N1CCC(c2cc(=O)n3[nH]c(-c4ccccc4)cc3n2)CC1	inactive
O=c1c2ccccc2nc2n1CC/C2=C\c1ccccc1[N+](=O)[O-]	inconclusive: 10 µM [activator, partial curve]
CCN1CCC(C(N)=O)CC1	inconclusive: 2 µM [activator, partial curve]
COc1ccc2cc(CCNC(=O)C(C)(C)C)c(=O)[nH]c2c1	inconclusive: 5.62 µM [activator, single point]
CCS(=O)(=O)N1Cc2ccccc2CC1C(=O)Nc1nc2ccccc2[nH]1 (stereo not drawn)	inconclusive: 14.1 µM [activator, single point]
